Measurements published in PubChem BioAssay (NCI).
Several values for one entry are separate records, joined by “and”; a condition that tells them apart may be missing. Identical values can stand only once.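 96-well plates; 48 h exposure; 5 concentrations. Endpoints by linear interpolation between flanking doses. Not reached: highest tested concentration assigned. Here, GI50 denotes the concentration required for 50% inhibition of growth. Definition used: TGI = concentration required for complete inhibition of growth.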

System: NCI-H322M lung
Experiment: growth of human tumour cells (NCI), 48 h

| SMILES | TGI | GI50 |
| --- | --- | --- |
| CC(C)C(OC(=O)c1ccc(NCc2cc(O)ccc2O)cc1)C(C)C | 18.1 µM | – |
| CN1CCN(CCCBr)CC1 | > 100 µM | – |
| C=C1c2[nH]c3c([N+](=O)[O-])c(OC)ccc3c2CCN1C(C)=O | > 100 µM | – |
| COC1OC2COC1(OC)C1OC(C)(C)OC21 (centres undefined) | > 100 µM | – |
| NNC(=O)Cn1c2ccc(Br)cc2c2nc3ccccc3nc21 | > 100 µM | – |
| C1CN(SSN2CCOCC2)CCO1 | > 100 µM | 52.1 µM |
| CCOP(=O)(OCC)C1CC(n2cc(C)c(=O)[nH]c2=O)OC1CO (centres undefined) | > 100 µM | – |
| COc1c(Cl)cc(NC(=S)C#N)cc1Cl | 72.9 µM | – |
| O=c1ccn(CC2(CO)CC(Cc3ccccc3)C2)c(=O)[nH]1 (centres undefined) | > 100 µM | – |
| C[C@]12CCC3[C@@H](CC[C@@H]4c5nonc5CC[C@]34C)C1C/C(=N/O)C2=O (some centres undefined) | > 100 µM | – |
| COC(=O)C(CSSC[C@H](N/C(C)=C/C(C)=O)C(=O)OC)N/C(C)=C/C(C)=O (some centres undefined) | > 100 µM | – |
| CN1CC[C@@H](c2c(O)cc(O)c3c(=O)cc(-c4ccccc4Cl)oc23)[C@@H]1CO | > 10 µM | 0.327 µM |
| CCNC(=O)c1cc(/C=C/c2ccc([N+](=O)[O-])o2)nc2ccccc12 | > 100 µM | – |
| NC(=O)c1c(NC(=O)c2ccc3c(c2)OCO3)sc2c1CCC(=O)C2 | > 100 µM | 2.99 µM |
| O=C1c2cc3c(cc2CC12Cc1ccc4c(c1C2=O)CCCC4)CCCC3 (centres undefined) | > 100 µM | – |
| O=c1cc(N2CCN(c3cc(=O)n4ccccc4n3)CC2)oc2ccccc12 | > 100 µM | – |
| C=C(C)C(O)C(O)c1c(OC)ccc2ccc(=O)oc12 (centres undefined) | > 100 µM | – |
| COc1ccc(/C=N/N=C(\N)NO)c(OC)c1 | > 100 µM | – |
| CCOC(=O)c1cc2c3c(c(C(C)=O)c(O)c2[nH]1)N(CC(C)CC)CC3 (centres undefined) | > 100 µM | – |
| CCOc1cc(C2CC(c3ccc(NS(=O)(=O)c4cc([N+](=O)[O-])ccc4C)cc3)=NN2c2ccc([N+](=O)[O-])cc2[N+](=O)[O-])ccc1O (centres undefined) | 26.8 µM | – |
| O=C(NC[C@H](O)CO)c1ccncc1Nc1ccc(I)cc1F | > 100 µM | 0.274 µM and 1.08 µM |
| O=C(Nc1ccccc1)N(CCCCN(Cc1ccccc1)C(=O)Nc1ccccc1)Cc1ccccc1 | > 100 µM | – |
| COc1ccc(-n2c(=O)n(C)c(=O)n2-c2ccc(OC)cc2)cc1 | > 100 µM | – |
| CCOC(=O)c1cc2c(C(=O)c3ccc([N+](=O)[O-])cc3)c(C(C)=O)ccc2[nH]1 | > 100 µM | – |

| SMILES | TGI | GI50 |
| --- | --- | --- |
| O=C(Nc1ccc(Cl)c(Cl)c1)O/N=C\c1c(Cl)ccc([N+](=O)[O-])c1Cl | 4.35 µM | 2.01 µM |
| C[C@]12CC[C@H]3[C@@H](CC[C@]4(O)C[C@@H](O)CC[C@]34/C=N/O)[C@@]1(O)CC[C@@H]2C1=COC(=O)C1 | 1.15 µM | – |
| CCN(CC)c1ccc2cc(C(=O)Nc3cccc4ccccc34)c(=N)oc2c1 | > 100 µM | – |
| CCOC(=O)NC(=O)c1cn(CCCCCCOC(=O)NCCCCCCNC(=O)OCCCCCCn2cc(C(=O)NC(=O)OCC)c(=O)[nH]c2=O)c(=O)[nH]c1=O | > 100 µM | – |
| Cc1cccc(C(C)C)c1NC(=O)CC1C(=O)Nc2ccccc2S1(=O)=O (centres undefined) | > 100 µM | – |
| OC(CCNCc1ccccc1)c1ccc2ccccc2c1 (centres undefined) | 58.8 µM | – |
| O=C1/C(=N\S(=O)(=O)c2ccccc2)C([n+]2ccc(Cc3ccccc3)cc2)=C([O-])c2ccccc21 | 3.08 µM | – |
| COc1cc(C2c3cc4c(cc3OC(NNC(N)=O)C2C)OCO4)cc(OC)c1O (centres undefined) | > 100 µM | – |
| CC1CC/C(=C\c2ccc(Cl)cc2)C2OC(N)=C(C#N)C(c3ccc(Cl)cc3)=C12 (centres undefined) | 32.2 µM | – |
| COc1ccc(C(=O)Cc2ccc(Br)cc2)cc1OC | > 100 µM | – |
| Cc1[nH]c2ccccc2c1C1Cc2ccccc2N1C(=O)/C=C/C(=O)O (centres undefined) | > 100 µM | – |
| CC1=C2C(=CC(C)(C)C2O)C(=O)C(C)(O)C12CC2 (centres undefined) | 0.316 µM | – |
| COc1ccc2c(c1)c(CC(=O)O)c(C)n2C(=O)c1ccc(Cl)cc1 | > 100 µM | – |
| O=C(COc1ccc(/C=C2\Oc3ccccc3C2=O)cc1)Nc1nc2c(s1)CCCC2 | > 100 µM | 52 µM |
| Cc1cn(Cc2cnnn2CC2OC(n3cc(C)c(=O)[nH]c3=O)CC2O)c(=O)[nH]c1=O (centres undefined) | > 100 µM | – |
| CC1(C)C2C=CC1(C)C1(CC2)OCCO1 (centres undefined) | > 100 µM | – |
| CC1(C)CC(=O)c2c(nc3ccc4ccccc4c3c2-c2ccc(NC(=O)CCCCCCCCC(=O)Nc3ccc(-c4c5c(nc6ccc7ccccc7c46)CC(C)(C)CC5=O)cc3)cc2)C1 | > 100 µM | – |
| CN(C)c1ccc2c(c1)OC(N)=C(C#N)C2c1ccc2c(c1)CCO2 (centres undefined) | > 100 µM | 0.517 µM |
| CCCC(=O)NC(Nc1ccc(S(=O)(=O)Nc2nc(C)cc(C)n2)cc1)(C(F)(F)F)C(F)(F)F | > 100 µM | – |
| CCOC(=O)c1c(N2CCCC2)ncn(Cc2ccccc2)c1=S | > 100 µM | – |
| c1ccc2c(c1)CCc1c-2n(CCN2CCOCC2)c2ccccc12 | > 100 µM | – |
| COc1cc2cc[n+]3c(C)c4cc(OC)c(OC)cc4c([O-])c3c2cc1OC | > 100 µM | – |
| CC[C@H](CO)Nc1nc(NCc2ccccc2)n2ncc(C(C)C)c2n1 | 8.91 µM | 1.86 µM |
| COc1ccc(C(SC2C(O)C(CO)OC2n2ccc(N)nc2=O)(c2ccccc2)c2ccc(OC)cc2)cc1 (centres undefined) | 58.5 µM | – |

| SMILES | TGI | GI50 |
| --- | --- | --- |
| O=C(c1cc(Cl)ccc1Cl)N1CCN(C(=O)c2cc(Cl)ccc2Cl)CC1 | > 100 µM | – |
| O=C1CC(S(=O)(=O)O)C=C1Nc1cccc(Cl)c1 (centres undefined) | > 100 µM | – |
| CCc1ccc(NC(=O)COC(=O)c2cc([N+](=O)[O-])ccc2Sc2nnnn2C)cc1 | > 100 µM | 32.1 µM |
| CC1(C)[C@H]2CC[C@]1(C)[C@H](OC(=O)NNC(=O)O[C@@H]1C[C@@H]3CC[C@@]1(C)C3(C)C)C2 | 39.9 µM | – |
| COc1ccc(/C=C2\CCCC3=C2NC(N)=NC3c2ccc(OC)c(OC)c2)cc1OC (centres undefined) | > 100 µM | > 100 µM |
| O=C(NN1C(=O)CSC12CCCC2)c1[nH]c2ccc(Br)cc2c1-c1ccccc1 | > 100 µM | 32.5 µM |
| O=C1C(=O)c2ccccc2C(O)=C1CCCc1ccc(Oc2ccccc2)cc1 | > 100 µM | – |
| S=C1SCN(Cc2ccco2)CN1c1ccc(Br)cc1 | 62.5 µM | – |
| Cc1cc(N2CCCC2)nc(N(CCNc2ccnc3cc(Cl)ccc23)Cc2ccco2)n1 | > 100 µM | 3.16 µM |
| COc1ccc(-c2c(C#N)c(S)n(NS(=O)(=O)c3ccc(C)cc3)c(=O)c2C#N)cc1 | > 100 µM | – |
| COc1ccccc1NC(=O)CC(=O)N1N=C(C)C(N=Nc2ccc(C(=O)O)cc2)C1=O (centres undefined) | > 100 µM | – |
| CN(/N=C/c1cccc2cccnc12)c1ccccc1 | > 100 µM | – |
| C=C1C(=O)OC2/C=C(/C)C(OC(C)=O)CC(O)/C(C)=C\C(OC(=O)/C(C)=C\C)C12 (centres undefined) | > 100 µM | – |
| CCOC(=O)NC(=O)c1cn(CCN2CCN(c3ncnc4nc[nH]c34)CC2)c(=O)[nH]c1=O | > 100 µM | – |
| Clc1nc(Cl)c2ncn(C/C=C/COc3cccc(OC/C=C/Cn4cnc5c(Cl)nc(Cl)nc54)c3)c2n1 | 39.1 µM | 18.2 µM |
| COc1ccc(/C=C2\S/C(=N/Nc3nc(-c4ccccc4)cs3)NC2=O)cc1OC | > 100 µM | – |
| Nc1ccccc1CC(O)C(=O)O (centres undefined) | > 100 µM | – |
| CC1=C(CO)C(=O)O[C@@H]([C@@H](C)[C@H]2CC[C@H]3[C@@H]4C[C@@H](O)[C@@]5(O)CC=CC(=O)[C@]5(C)[C@H]4CC[C@]23C)C1 | > 100 µM | – |
| Cc1c2c(nn1C)CSCc1cc(n(C)n1)CSc1cc(c3ccccc3c1)OCCCc1c(C(=O)O)n(C)c3c-2c(Cl)ccc13 | 18.2 µM | 5.23 µM |
| C=C(CO[Si](C)(C)C(C)(C)C)C(C)=O | > 100 µM | – |
| CN1c2ccccc2N(C)C23N(C)c4ccccc4N(C)C12N(C)c1ccccc1N3C (centres undefined) | > 100 µM | – |
| O=CN/C=C/c1ccc(O)c(O)c1 | > 100 µM | – |
